Data reported in the supplement of paper PMC10126150.
Values marked as one replicate rest on one cluster of the flow cell; about a third of the high ones do not repeat.

System: ATP
Test: switch fluorescence ratio, 500 uM ATP over buffer (Cy3 cluster intensity, sum of 5 cycles each) (fold (ratio)); higher = stronger signal-on switching upon ATP binding; sequences stand for … in TCGTCGGCAGCGTCAGATGTGTATAAGAGACAGTTTTTTTTTTTTTTTTTTTTTTTTT…TC
Details: aptamer strand: ATP DNA aptamer (quencher-CACCTGGGGGAGTATTGCGGAGGAAGG + anchor), 100 nM annealed; ATP concentration: 500 uM; one replicate
Summary of the method: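 Clusters with intensities outside 100-1000 RFU were excluded. The remaining Cy3-labelled switching-strand clusters on a modified Illumina MiSeq flow-cell had been annealed to 100 nM quencher-labelled ATP aptamer and imaged in selection buffer, then after 15 min with 500 uM ATP at 22 °C, for five cycles separated by NaOH stripping and re-annealing. The fluorescence ratio, averaged per switch-domain sequence, is each cluster's summed target-cycle Cy3 intensity over its summed buffer-cycle Cy3 intensity.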
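Further: ATP exposure 15 min at 22 °C before imaging.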

| Sequence | switch fluorescence ratio |
| --- | --- |
| CAAGGTGTGG | 1.06 |
| CTCGAGTACC | 1.07 |
| GCAGTCAGTT | 1.03 |
| GGTTACATT | 1.02 |
| CGCTAGAGGC | 1.04 |
| ATATTGTAAT | 1.03 |
| ATGAGCTTCA | 1.01 |
| ATCCAGCCGA | 1.04 |
| CGCTGCTACA | 1.17 |
| ACGCTCATTT | 1.07 |
| AATATAGTGT | 1.02 |
| AAAGTGATCG | 1.02 |
| GCGGAGGGGA | 1.01 |
| CATTGTTCAT | 0.995 |
| AACGGAGAC | 1.08 |
| CTGTGAGAAA | 0.984 |
| AAATTATCAT | 0.893 |
| CGATAAAAGG | 0.971 |
| TGCTCAGAGG | 1.01 |
| ATACTAACCG | 1.11 |
| TTTCGTGGCC | 1.07 |
| CGGGCGCCGT | 1.03 |
| ATTAATCGTT | 0.986 |

| Sequence | switch fluorescence ratio |
| --- | --- |
| ATAAGGGTTG | 1.01 |
| ATTATACTCG | 1.04 |
| CGGACTAAGT | 1.06 |
| ATTACCCAAG | 1.04 |
| TAATACTACT | 1.41 |
| TTTGCATCAG | 0.968 |
| TATAGAGCG | 1.01 |
| AATGTAGGTC | 1 |
| ATTGAGACAT | 1.02 |
| CAATTGCTTG | 1.03 |
| ACCGAGACG | 1.01 |
| TAGGTTCATA | 0.979 |
| GGTAACATTA | 0.95 |
| CGGCCTATCT | 1.01 |
| TTAGTTTCA | 1.02 |
| CCTAGTAGGT | 1.03 |
| TCATGTATA | 0.998 |
| TCCTCCTGAG | 1.9 |
| GGTAACATAC | 1.2 |
| GTGAGTGAGA | 0.99 |
| AGGGGATTTA | 0.945 |
| GTGGGGCTCC | 1.02 |
| GTTGCCAAAA | 0.958 |

| Sequence | switch fluorescence ratio |
| --- | --- |
| CAGATGACGC | 1.06 |
| ACACGTCGCC | 1.06 |
| TCTTGGGATG | 0.98 |
| TCGCGAGGTA | 0.961 |
| GGCCATTGAG | 0.983 |
| TGTGTAGTAC | 1.11 |
| ACGATCTTTA | 0.985 |
| CGGGGAAGT | 0.975 |
| ACTTTCTTCG | 1.53 |
| TATTTCCGAC | 1.51 |
| GTGGGCAGTG | 1.03 |
| AGCTGCTAGA | 1.02 |
| TGGAAGCG | 0.972 |
| CTGTCGGAGG | 0.99 |
| GGTATCGGGA | 1.02 |
| GATGCACGTT | 1.04 |
| TGCGCTACT | 1.24 |
| TGAAGGTAAT | 0.991 |
| ACCGATTTCA | 1.01 |
| AGGTAGGAGG | 1.02 |
| GTTATGGGA | 0.99 |
| AGTAACAGGT | 1.04 |
| GTTATGCGTT | 0.987 |

| Sequence | switch fluorescence ratio |
| --- | --- |
| GGGAAAAAAA | 0.95 |
| CAGCATCGG | 1.06 |
| CGACTCTGTT | 1.02 |
| AGGCTTGGCG | 1.06 |
| AGGCAACTCA | 1.04 |
| TGATGGACAT | 1.03 |
| GGAGGGTTGC | 0.882 |
| AGGTCCACTT | 0.982 |
| AAGGGTCCTT | 1.02 |
| CCGAGAAACC | 1.63 |
| ACGGGAAGTT | 0.959 |
| AGATAATCAA | 0.961 |
| GCTAACGTTT | 1.06 |
| AAAGGCACGT | 1.17 |
| GGTCCAACCT | 1.2 |
| TTTCAACCTG | 1.03 |
| AAAGGGAGG | 1.02 |
| GAAAGGAGGA | 1.02 |
| ATGGTCTGCA | 0.945 |
| ACTCATAGGC | 1.07 |
| TATAATTAGT | 0.985 |
| TGTTGTCCGG | 1.02 |
| CCAACTAAAG | 1.01 |

| Sequence | switch fluorescence ratio |
| --- | --- |
| AACAGCTGCG | 1.05 |
| TAGGGTGTGA | 0.963 |
| CCGGGGAGG | 1.05 |
| ACGTGGGTTG | 0.997 |
| CTGTGCGAGC | 1.03 |
| GCTCGGTGGC | 1.05 |
| ATTTGCACTG | 1.03 |
| GTCCCCGGTA | 1.04 |
| CCGAGAGTGT | 1.1 |
| TTATTCTTAG | 1.01 |
| CGAGCAGGAG | 1.96 |
| TCATTCGACG | 1.02 |
| TGGGTTCTTT | 0.998 |
| TTTGCCCTAT | 1.01 |
| CTGTATTTG | 0.974 |
| GTGAGGATCA | 1.02 |
| TATTCTGAAT | 0.949 |
| ATTATACTGC | 0.998 |
| TGTAAGCAT | 1.91 |
| GCGCAAG | 1.13 |
| AAAGTCAAAT | 1.03 |
| AAGGAATATA | 1.07 |
| GGTATCGTGG | 0.941 |

| Sequence | switch fluorescence ratio |
| --- | --- |
| GCCTTTTGT | 0.98 |
| TTCCTGTCGG | 0.998 |
| GCATTTGCAA | 1 |
| TCCCTGGTTC | 1.01 |
| TTCGCATAAA | 1.18 |
| CCGAATGGAA | 1.07 |
| TGCCAAAAAT | 0.952 |
| CATAATTAT | 0.985 |
| GAAGGATGCC | 1.03 |
| AACTTAATAT | 0.978 |
| AAATTCATGA | 0.985 |
| ATGTAAGAGA | 1.02 |
| GCTAAGTTGC | 1.02 |
| AACTTAACGT | 1.09 |
| CACGATAGCT | 1.12 |
| TGAGCGCATG | 1.03 |
| AGATATCCGT | 1.03 |
| GTTAAAAATA | 1.02 |
| CGGGCTACAG | 1.02 |
| TACAGCCTTC | 1.11 |
| AATAGTACTA | 1 |
| AATTATAACT | 1.08 |
| AATAGTAGAG | 0.98 |

| Sequence | switch fluorescence ratio |
| --- | --- |
| GTAATCTTAA | 1.01 |
| GCCATATGGA | 0.944 |
| ACGATCGAGA | 1.01 |
| ATATTACAAC | 0.994 |
| ACGTAATGTA | 1.15 |
| TATAGACAAA | 1.01 |
| TAGCCATAGA | 1.36 |
| TACTTCGTTT | 0.955 |
| CCTTACACG | 1.14 |
| TTTTCCCCCA | 1.03 |
| AACCGAAGGG | 0.979 |
| ATAGGGCCGT | 0.99 |
| TGCCTATCAA | 1.02 |
| GGTTGGTATC | 0.957 |
| CAATAACGGC | 0.987 |
| CCACCGGCTA | 3.61 |
| CAAGGTATCA | 1.01 |
| TTACAAGATA | 0.999 |
| AGGTGGACCT | 1.09 |
| CAGGCTATGA | 1.03 |
